# Measurements as given in PubChem BioAssay AID488969 (Vanderbilt High Throughput Screening Facility, 2010).
# Over roughly 110,000 compounds, “z-score” has its median near -0.1; the highest 2% begin near 2. This is one part of the list.
# Target: Metabotropic glutamate receptor 8 (Rattus norvegicus) (UniProt P70579)
# Assay: rat mGluR8 modulators via GIRK flux, primary screen, cell-based, thallium flux, HTS (AID 488969)
# Details: HEK293 rat mGluR8, GIRK (G protein-gated inwardly rectifying potassium channel) thallium flux, FluoZin2; at 10 µM; stronger effect = higher value; submaximal glutamate (EC20) added with thallium
# UniProt P70579, sequence (P70579 whole entry, looked up): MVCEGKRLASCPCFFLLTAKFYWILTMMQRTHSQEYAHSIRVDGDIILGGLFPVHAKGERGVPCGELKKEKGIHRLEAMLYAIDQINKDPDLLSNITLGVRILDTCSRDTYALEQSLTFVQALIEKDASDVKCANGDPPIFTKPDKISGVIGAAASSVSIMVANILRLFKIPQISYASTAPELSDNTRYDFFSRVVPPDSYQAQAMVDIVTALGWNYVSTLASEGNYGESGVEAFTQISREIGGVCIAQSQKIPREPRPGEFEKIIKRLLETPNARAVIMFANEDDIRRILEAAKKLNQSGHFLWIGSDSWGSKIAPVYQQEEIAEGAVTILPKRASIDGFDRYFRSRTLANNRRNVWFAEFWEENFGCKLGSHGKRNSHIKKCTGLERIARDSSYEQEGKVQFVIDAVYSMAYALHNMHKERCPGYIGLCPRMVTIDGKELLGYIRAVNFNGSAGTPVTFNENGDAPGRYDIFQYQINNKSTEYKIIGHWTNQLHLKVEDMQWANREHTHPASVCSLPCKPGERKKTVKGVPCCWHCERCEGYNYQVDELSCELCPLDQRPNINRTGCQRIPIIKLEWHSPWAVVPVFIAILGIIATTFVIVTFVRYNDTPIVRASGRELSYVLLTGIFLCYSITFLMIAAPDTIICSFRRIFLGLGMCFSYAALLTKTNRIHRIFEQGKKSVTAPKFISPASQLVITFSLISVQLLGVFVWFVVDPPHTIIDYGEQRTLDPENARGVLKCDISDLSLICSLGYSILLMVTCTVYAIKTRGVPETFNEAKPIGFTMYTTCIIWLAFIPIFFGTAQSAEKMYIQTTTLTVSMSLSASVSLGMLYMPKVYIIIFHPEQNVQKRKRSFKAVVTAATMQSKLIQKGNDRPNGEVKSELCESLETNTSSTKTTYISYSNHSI
row,Structure (SMILES),z-score
1,CCOc1ccc(C(N)=O)cc1OC,-0.083
2,O=C(NCC1CCC(C(=O)O)CC1)c1cccnc1 (stereo not given),1.63
3,CNCc1ccccc1Sc1cccc(O)c1,0.252
4,O=C(C1CCCCC1)N(Cc1ccccc1)c1ccccn1,-0.809
5,COc1ccc(Nc2nc(N3CCCCC3)nc3ccccc23)c(OC)c1,2.6
6,COc1cc2c(cc1OC)-c1nnc(-c3ccco3)n1C1(CCCC1)C2,-0.271
7,C=CCN1C(=O)S/C(=C/c2ccsc2)C1=O,-0.0335
8,CCC(=O)OC1CC(C)N(C(=O)c2ccccc2)c2ccc(C)cc21 (stereo not given),-0.807
9,COC(=O)c1ccc(OC(=O)CCN2C(=O)C3C4c5ccccc5C(c5ccccc54)C3C2=O)cc1 (stereo not given),-0.3
10,CCOC(=O)c1sc(-c2ccc(OC)cc2)cc1NC(C)=O,-0.181
11,Cc1cc(C)n2nc[n+](C)c2n1,-0.0994
12,C=CCn1c(=N)n(CC(=O)c2ccc(Br)s2)c2ccccc21,-1.22
13,O=C(NCc1ccc2c(c1)OCO2)C1CC(c2ccc(Cl)c(Cl)c2)=NO1 (stereo not given),-0.125
14,CCN(CC)C(=S)SCC(=O)c1c(C)[nH]c2ccccc12,-0.207
15,COc1ccc(NC(C)=O)cc1NC(=O)CN1CCN(CC(=O)Nc2ccccc2Cl)CC1,-1.02
16,O=C(NCCN1CCCC1)c1ccc(CS(=O)(=O)c2c(Cl)cccc2Cl)o1,-0.063
17,O=C(O)C1(NS(=O)(=O)c2ccc(F)c(Cl)c2)CCCCC1,0.157
18,CCCCCCc1c(O)nc(SCC(=O)O)[nH]c1=O,0.353
19,Cc1ccccc1Cn1c(=O)n(CC2CCC(C(=O)NCCc3ccccc3)CC2)c(=O)c2ccccc21 (stereo not given),-0.211
20,C=CCOc1ccc2c(CC)cc(=O)oc2c1C,-0.699
21,CCOC(=O)c1c(C=O)c(C)n(Cc2ccc(C)cc2)c1C,-0.259
22,CCc1ccc(-c2csc(NC(=O)C3CC(=O)N(c4ccc5c(c4)OCCO5)C3)n2)cc1 (stereo not given),0.368
23,Cc1nn(C)cc1CNC(=O)Nc1cccc(Cl)c1,0.0377

row,Structure (SMILES),z-score
1,O=S(=O)(c1ccc(Cl)cc1)n1c(Cc2ccccc2)nc2ccccc21,-0.171
2,CCOC(=O)c1cnc(Nc2nc3ccccc3o2)nc1CSc1nnc(C)s1,0.179
3,CCSc1cc(C)nc2ncnn12,0.0597
4,CCc1sc(C(=O)Nc2cc(Cl)ccc2N2CCCCC2)cc1C,0.176
5,Cc1cc(F)ccc1S(=O)(=O)Nc1ccccc1C(=O)Nc1ccccc1-c1nc2ccccc2[nH]1,-0.235
6,COc1cccc(N/C(SC)=C(/C#N)C(N)=O)c1,0.184
7,COc1ccc(-c2cc(-c3nnc(COC(=O)CC4CCCC4)o3)c3ccccc3n2)cc1OC,-0.171
8,Cc1ccccc1NC(=O)C1(C)Cc2ccccc2C(=O)O1 (stereo not given),0.354
9,O=C(CN1C(=O)c2ccccc2C1=O)NNC1=NS(=O)(=O)c2ccccc21,0.0472
10,CC(C)CCOP(=O)(c1ccccc1)c1ccccc1,-2.77
11,CCOC(=O)C1CSC(CC(=O)Nc2ccc(OCC)cc2)C(=O)N1 (stereo not given),-0.0647
12,COC(=O)c1ccc(CSc2nnc(C)s2)cc1,-0.133
13,Cn1cccc1C(=S)N1CCOCC1,1.12
14,O=C(COc1ccccc1)Nn1cnc2ccccc21,-0.833
15,N/C(=N\OC(=O)CC1CCCCC1)c1ccccn1,-0.1
16,O=C(NC1CC1)C1CCC(=O)N1C1CCCC1 (stereo not given),0.108
17,CCCCCCNCc1ccc(Br)cc1,-0.0374
18,CC(=O)Cc1nsc(Nc2ccccc2)n1,0.418
19,Cc1ccccc1N1C(=O)CC(Sc2nnc(-c3ccccc3)o2)C1=O (stereo not given),0.0122
20,O=C(Nc1ccccc1)N1CCOCC1,-0.206
21,Cn1ccnc1Sc1nc2c(c(=O)n(C)c(=O)n2C)n1C,0.204
22,CCC(C)c1ccc(S(=O)(=O)N2CC(=O)Nc3ccccc32)cc1 (stereo not given),-0.268
23,Cc1nn2c(-n3ccnc3C)c3c(nc2c1-c1ccccc1)CCC3,-0.311

row,Structure (SMILES),z-score
1,CCc1nnc(NC(=O)c2ccc(-c3ccccc3Cl)o2)s1,-0.559
2,O=c1cc(N2CCN(c3ccc(F)cc3)CC2)[nH]c(=O)n1Cc1ccc(F)cc1,0.0667
3,C=C(C)C(=O)OC1(C(F)(F)F)Oc2cc(C)ccc2NC1=O (stereo not given),-0.772
4,COc1ccc(NC(=O)Cn2nnc(C(=O)NCCc3ccc(OC)c(OC)c3)c2N)cc1,0.0718
5,COc1nccnc1NS(=O)(=O)c1ccc(NC(=S)NC(=O)c2cccc(F)c2)cc1,-0.186
6,COCCn1c(SCC(=O)Nc2cc(C)cc(C)c2)nnc1C(C)C,-0.196
7,Cc1ccc(N)cc1-n1c(C)ccc1C,0.0348
8,CCCn1nnc(NC(=O)C(c2ccccc2)c2ccccc2)n1,0.792
9,O=C1C2ON(c3ccccc3)C(c3ccccc3F)C2C(=O)N1c1ccccc1 (stereo not given),-0.108
10,COc1ccc(-c2nc3scc(-c4ccccc4)n3n2)cc1,0.453
11,COC(=O)C1=C(C)N(c2cccc(Cl)c2)C(=O)C1,-0.271
12,COC(=O)c1c(NC(NC(=O)C(C)C)C(Cl)(Cl)Cl)sc2c1CCC2 (stereo not given),-0.164
13,COc1ccc(OC)c(N=c2ssnc2Cl)c1,0.0164
14,COc1ccc(OC)c2c1sc(=NC(=O)CN1C(=O)CCC1=O)n2C,-0.248
15,CC(OC(=O)c1cccs1)C(=O)NCc1ccccc1 (stereo not given),-0.186
16,C=CCNC(=O)C12CC3(C)CC(C)(CC(C)(C3)C1)C2,-0.477
17,C/C(=N/NC(=O)c1cc(C2CC2)[nH]n1)c1cccs1,-0.291
18,CCOc1ccc(NS(=O)(=O)c2ccc(NC(=O)[C@@H]3CCCC[C@@H]3C(=O)O)cc2)cc1,0.0947
19,CN(CC(=O)Nc1ccccn1)S(=O)(=O)c1ccc(Cl)cc1,-0.263
20,O=C(NCCCN1CCOCC1)c1cc2ccccc2o1,-0.144
21,CCOC(=O)c1nnn(-c2nonc2N)c1-c1cccc2ccccc12,-1.66
22,COC(=O)C1=C(C)N(c2ccc(F)cc2)C(=O)C1,0.436
23,COc1cccc(-c2nc(-c3ccc(NC(=O)c4cccs4)cc3)no2)c1,-0.227

row,Structure (SMILES),z-score
1,CN(CC(=O)Nc1ccc(N2CCOCC2)cc1)CC(=O)Nc1ccccc1[N+](=O)[O-],-0.146
2,O=C1CCC(C(=O)N(Cc2ccco2)C2(C(=O)NC3CCCC3)CCCCC2)N1 (stereo not given),-0.815
3,Cc1ccccc1NS(=O)(=O)c1cc(C(=O)NCCC2=CCCCC2)ccc1C,-0.297
4,O=S(=O)(c1ccccc1)c1cnc(-c2cccnc2)nc1-c1ccc(Cl)c(Cl)c1,-0.328
5,O=C(c1ccco1)c1nc2c(n1O)CCCCC2,-0.169
6,O=C(Nc1nc2c(s1)CCc1ccccc1-2)c1cccs1,-0.0995
7,Cc1ccc(/C=c2/sc3nnc(-c4ccccc4Cl)n3c2=O)o1,-0.433
8,CN(C)c1ccc(C(=S)N2CCCCCC2)cc1,-0.472
9,CC1(C)C2CC=C(/C=N/NC(=O)c3ccccc3Br)C1C2 (stereo not given),-0.56
10,Cc1cccc(C)c1NC(=O)Cn1c(CN2CCCCC2)nc2ccccc2c1=O,-0.232
11,Cc1cc(=O)[nH]c(NN=C(CC(C)C)CC(C)C)n1,-0.256
12,O=S(=O)(NCc1ccncc1)c1ccc(S(=O)(=O)NCC2CCCO2)cc1 (stereo not given),1.96
13,O=c1c2ccccc2nc(CSc2ncnc3nc[nH]c23)n1-c1cccc(C(F)(F)F)c1,-0.256
14,Clc1ccc(-c2nnn(Cc3nc4ccccc4s3)n2)cc1,0.201
15,CC(Sc1nnc(NC(=O)c2cc3ccccc3oc2=O)s1)c1ccccc1 (stereo not given),-0.148
16,Clc1ccc(-c2nnc3n2CCCC3)cc1Cl,-0.122
17,O=C(Nc1ccc(S(=O)(=O)N2CCCCCC2)cc1)C1CCCO1 (stereo not given),-0.179
18,CC(C)n1cc(/C=C2/SC(=O)N(CC(=O)N3CCCC3)C2=O)c2ccccc21,-0.33
19,Cc1nc2c(cc1C(=O)N/N=C/c1ccc([N+](=O)[O-])cc1)c(=O)n(C)c(=O)n2C,-0.192
20,Cc1n[nH]c(C)c1S(=O)(=O)Nc1ccc2c(c1)OCCO2,0.0978
21,Cc1ccc(C2CC(=O)Nc3cc4c(cc32)OCCO4)s1 (stereo not given),-0.217
22,O=C(NCCN1CCOCC1)c1ccccc1Oc1ccccc1,-0.115
23,COc1ccc(C2C=C(c3ccc(Br)cc3)Nc3nc(N4C(=O)CCC4=O)nn32)cc1 (stereo not given),0.112

row,Structure (SMILES),z-score
1,COCc1cc(C)nc2sc3c(=O)n(Cc4ccco4)nnc3c12,-0.445
2,O=C(NCCc1ccccc1F)/C(=C/c1cccnc1)NC(=O)c1ccccc1,0.0991
3,CCCCN1C(=O)C(NC(C)=O)c2ccccc21 (stereo not given),0.127
4,CC1(C)C(=O)Nc2ccccc2N1C(=O)COC(=O)Cn1cnc2ccccc2c1=O,-0.303
5,COc1ccc(CCNC(=O)C23CN(Cc4ccccc4)CC2C(c2cccc([N+](=O)[O-])c2)=NO3)cc1 (stereo not given),-0.283
6,CCOC(=O)c1nn(-c2ccc(C)cc2)c2nc(Nc3ccccc3)cc(=O)n12,-0.16
7,Cc1c(C(=O)C(C)C)n(C)c2ccccc12,0.958
8,CN(C)c1nc(OCCNC(=O)COc2ccc(Cl)cc2Cl)nc(N(C)C)n1,0.252
9,Cc1ccc(C(=O)Nc2ccc3c(c2)OCCO3)o1,0.0205
10,Clc1ccc(NNc2ccnc3cc(Cl)ccc23)cc1,0.113
11,Cc1noc(C)c1Cc1c(Cl)cccc1Cl,-0.489
12,O=C(Oc1cccc(NC(=O)c2ccccc2Cl)c1)c1ccc([N+](=O)[O-])cc1,0.271
13,O=C(Nc1ccc(OC(F)F)c(Cl)c1)[C@@H]1CCCN1C(=O)c1cccs1,-0.362
14,O=S(=O)(Nc1ccc(Cc2ccncc2)cc1)c1ccc(Cl)s1,0.279
15,CC(C)NC(=O)CSCc1c(F)cccc1Cl,-0.0579
16,COc1cccc(C(=O)Nc2nc3c(c(=O)[nH]2)CCCC3)c1,-0.541
17,OC(CSc1c(Cl)cccc1Cl)CN1CCN(c2ccccc2F)CC1 (stereo not given),-0.165
18,Cc1ccc(NC(=O)NNc2cccc(Cl)n2)cc1,0.0783
19,O=C(Nc1nnc(-c2ccc3c(c2)OCCO3)o1)c1ccc(Cc2ccccc2)cc1,-0.048
20,CN(c1ccccc1)C(c1ccc(F)cc1)c1nnnn1CC1CCCO1 (stereo not given),-1.09
21,COc1ccc(-c2n[nH]c(=S)n2/N=C/C=C\c2ccccc2OC)cc1,0.126
22,COc1ccc(Oc2nnc(-c3ccc(C)cc3)c3ccccc23)cc1,-0.0839
23,Cc1cc(C)nc(N2CCC(C(=O)Nc3nnc(C)s3)CC2)n1,0.369
